According to PubChem BioAssay AID493208 (National Center for Advancing Translational Sciences (NCATS), 2011):
Among all 44,000 compounds or so, about 340 (0.77%) were called active. About 5% were inconclusive and are not listed. The call rests on the fitted dose curve; in most records, active means well fitted inhibition curve with a large enough effect; inconclusive means small, poorly fitted or top-dose-only effect; inactive means flat fitted curve, though single readings scatter. The list shows a part of the results.

Assay: Acumen qHTS Assay for Inhibitors of the mTORC1 Signaling Pathway in MEF (Tsc2-/-, p53-/-) Cells: Sytravon; further: nearly all actives have a fitted effect of over 50% in size;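 on activity change, negative = inhibition: plate controls were DMSO for no effect and rapamycin for full effect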
Conditions: phospho-rpS6 immunofluorescence/PI, 24 h; series mostly up to 38.3 µM; activity change, negative = inhibition: at the top concentration
Outline: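 Plate MEFs (Tsc2-/-, p53-/-, empty vector) in DMEM/10% FBS; after 24 h add compound, incubate 24 h at 37 degree Celsius; fix in PFA/TX-100, block, stain phospho-rpS6 and 10 uM PI; scan at 488 nm; report % positive cells.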
Potency means the concentration at half of the fitted maximal effect.

Row | SMILES | activity change, negative = inhibition | Potency
1 | O=S(=O)(Nc1ccc(-c2ccc(N3CCCCC3)nn2)cc1)c1ccc(OC(F)(F)F)cc1 | inactive: -7.94% | –
2 | CCCn1cc(S(=O)(=O)c2cccc(Cl)c2)c(=O)c2cc(F)c(N3CCOCC3)cc21 | inactive: -11.5% | –
3 | CCN(CC)C(=O)CSc1nnc2ccc3ccccc3n12 | inactive: 4.52% | –
4 | Cc1nn(-c2ccc(N3CCCCC3)nn2)c(C)c1CCC(=O)NCc1ccc(F)cc1 | inactive: -5.17% | –
5 | CCc1ccccc1NC(=O)CN1C(=O)CCn2nc(-c3cccn3C)cc21 | inactive: 7.22% | –
6 | Cc1cccc(NC(=O)CSC2=Nc3ccccc3C3=NC(CCC(=O)NCc4ccco4)C(=O)N23)c1 (stereo not given) | inactive: -13.5% | –
7 | COc1cc(OC)c(NC(=O)Cn2ncn3c(cc4cc(C)ccc43)c2=O)cc1Cl | inactive: -2.2% | –
8 | COC(=O)c1sccc1S(=O)(=O)N(CC(=O)Nc1cccc(C)c1C)c1ccc(C)c(C)c1 | inactive: -29.3% | –
9 | COc1ccccc1CNC(=O)Cn1cc2c(n1)-c1c(oc(C(=O)N3CCOCC3)c1C)CC2 | inactive: -6.05% | –
10 | CC(C)CN(CCNC(=O)CCN1N=C(c2ccccc2)CCC1=O)CC(C)C | inactive: 7.06% | –
11 | COc1ccc2c(C)c(CC(=O)NCc3ccccc3Cl)c(=O)oc2c1OC | inactive: 1.89% | –
12 | Cc1ccc(-c2onc(C)c2C)cc1S(=O)(=O)Nc1ccccn1 | inactive: -3.22% | –
13 | CCc1ccccc1NC(=O)c1ccc2c(c1)CCCN2S(C)(=O)=O | inactive: -5.36% | –
14 | CCSc1nc2ccccc2c(OCc2ccc(Cl)cc2)c1C(=O)OC | inactive: 8% | –
15 | COc1ccc2c(c1)c1c(c(=O)n(CCc3ccccc3)c(=O)n1Cc1cccc(F)c1)n2C | inactive: -2.05% | –
16 | CN(C)S(=O)(=O)N1CCC(n2c(C(F)(F)F)nc3cccnc32)CC1 | inactive: 3.01% | –
17 | COc1ccc(Cn2c(CO)cnc2SCc2ccc(C)cc2)cc1 | inactive: -4.41% | –
18 | CC(C)(C)OC(=O)N1CCC(c2c(C(=O)N3CCN(Cc4ccccc4)CC3)cnn2-c2cccc(Cl)c2)CC1 | inactive: -0.362% | –
19 | COc1ccc(CCNC(=O)CN(c2ccccc2)S(=O)(=O)N(C)C)cc1OC | inactive: 4.54% | –
20 | CCc1cccc(C)c1NC(=O)CSc1nc2ccccc2nc1Cc1ccccc1 | inactive: -0.122% | –
21 | Cc1ccc(NC(=O)c2oc3ccc(S(=O)(=O)N4CCC5(CC4)OCCO5)cc3c2C)cc1Cl | inactive: -2.94% | –
22 | CC(=O)N1CCC(N(CCCOC(C)C)C(=O)Nc2ccc(C)c(C)c2)CC1 | inactive: 4.82% | –
23 | COc1ccc(-c2nc3cc(NC(=O)COc4ccccc4C)ccc3o2)cc1 | inactive: 2.07% | –
24 | CCOC(=O)c1c(NC(=O)c2cc(-c3ccc(OC)c(OC)c3)on2)sc2c1CCCC2 | inactive: -1.74% | –

Row | SMILES | activity change, negative = inhibition | Potency
25 | CCc1c(C)sc2c1CCN(Cc1ccc(C#N)cc1)C2c1ccccc1 (stereo not given) | inactive: 12.5% | –
26 | O=C(CN1C(=O)CCSc2ccc(S(=O)(=O)N3CCCC3)cc21)Nc1cccc(F)c1 | inactive: 0.522% | –
27 | COc1cc(C(c2c(C)[nH][nH]c2=O)c2c(C)[nH][nH]c2=O)ccc1OC(=O)c1ccccc1OC | inactive: 4.4% | –
28 | COC(=O)CC1Oc2ccccc2-n2cc(-c3ccc(F)cc3)nc21 (stereo not given) | inactive: -8.47% | –
29 | CCOC(=O)C(C)NC(=O)c1c2c(nc3ccccc13)C(=O)N(C1CCCCC1)C2 (stereo not given) | inactive: -6.73% | –
30 | Cc1ccc(Cl)cc1-n1nnc(-c2nc(-c3ccc4c(c3)OCO4)no2)c1C | inactive: -3.85% | –
31 | COc1ccc(Nc2nn3c(=O)c4cc5c(cc4nc3s2)OCO5)c(OC)c1 | inactive: 2.03% | –
32 | Cc1cccc(N(C)S(=O)(=O)c2cc(-c3cnc(C4CC4)o3)ccc2C)c1 | inactive: 0% | –
33 | O=C(CCNS(=O)(=O)c1ccc2c(c1)CCN2C(=O)C1CC1)N1CCN(c2cccc(Cl)c2)CC1 | inactive: -22.8% | –
34 | CCC(=O)N1c2ccc(S(=O)(=O)CCC(=O)Nc3ccc(OC)cc3OC)cc2CC1C (stereo not given) | inactive: -3.43% | –
35 | CCc1ccc(C2c3c(-c4ccccc4O)n[nH]c3C(=O)N2Cc2cccnc2)cc1 (stereo not given) | inactive: -4.98% | –
36 | CCC(=O)N1CCc2cc(CNS(=O)(=O)c3ccc(CC(C)C)cc3)ccc21 | inactive: 4.57% | –
37 | CCN1CCN(c2ncc3c(n2)CCN(Cc2ccccc2C)C3)CC1 | inactive: -12.2% | –
38 | COc1ccc(-c2nc(CS(=O)CC(=O)NCCc3ccc(Cl)cc3)c(C)o2)cc1OC (stereo not given) | inactive: -0.721% | –
39 | CCc1ccc(-n2nc(CO)c(C(=O)NC)n2)cc1 | inactive: 3.66% | –
40 | CC(C)CCNC(=O)C1CCN(C(=O)c2cc3sccc3n2Cc2ccc(Cl)cc2)CC1 | inactive: -9.71% | –
41 | Cc1ccc(CS(=O)(=O)c2ncc(Cl)c(C(=O)Nc3nnc(C(C)C)s3)n2)cc1 | – | active: 14.7 µM
42 | Cc1cccc(N2CCN(C(=O)Cn3c(-c4cccs4)cc4ccccc43)CC2)c1C | inactive: 0.432% | –
43 | Cc1ccc2c(CC(=O)Nc3ccc(S(=O)(=O)N4CCCCC4)cc3)coc2c1C | inactive: -10.6% | –
44 | COc1cc(CN(C(=O)c2ccccc2F)C2CCS(=O)(=O)C2)cc(OC)c1OC (stereo not given) | inactive: 0.927% | –
45 | CCCS(=O)(=O)N1CC(=O)N(c2ccc(C)c(Cl)c2)C(C)(C(=O)NC2CCCCCC2)C1 (stereo not given) | inactive: -4.73% | –
46 | CCCCNC(=O)CCCN1C(=O)c2ccccc2Sc2ncccc21 | inactive: -2.7% | –
47 | Oc1c(C(c2ccc(F)cc2)N2CCN(Cc3ccccc3)CC2)sc2nc(-c3ccco3)nn12 (stereo not given) | inactive: 0.278% | –
48 | CN1C(=O)C2(c3ccccc31)N(c1cccc(C(F)(F)F)c1)C(=O)CS2(=O)=O (stereo not given) | inactive: -6.73% | –

Row | SMILES | activity change, negative = inhibition | Potency
49 | O=C(NCc1ccc(F)cc1)C(=O)NCC(c1ccc2c(c1)OCO2)N1CCOCC1 (stereo not given) | inactive: -9.7% | –
50 | COc1ccc(NC(=O)C2CCCN(S(=O)(=O)c3c(C)[nH]c(=O)[nH]c3=O)C2)c(OC)c1 (stereo not given) | inactive: -7.05% | –
51 | COc1ccc(C(=O)N(Cc2ccco2)Cc2ccc(C)o2)cc1 | inactive: 3.82% | –
52 | Cc1cccc(-c2nc3nc(C)cc(NC(C)c4ccccc4)n3n2)c1 (stereo not given) | inactive: 0.544% | –
53 | COc1cc(NS(=O)(=O)c2ccc(NC(=O)c3ccc(Cl)cc3Cl)cc2)nc(OC)n1 | inactive: -3.36% | –
54 | Cc1ccc2nc(-c3ccc(NC(=O)COc4ccc(Br)cc4Br)cc3)sc2c1 | inactive: -7.25% | –
55 | COCCCNC(=O)c1cnc2sc(N3CCCCC3)nn2c1=O | inactive: -6.9% | –
56 | CNC(=O)c1c(NC(=O)/C=C/c2ccccc2)sc2c1CCC2 | inactive: 1.17% | –
57 | CCOc1ccc(NC(=O)Cn2nnc(-c3nc(-c4ccncc4)no3)c2N)cc1 | inactive: -1.4% | –
58 | CCc1ccc(NCc2cc3cc4c(cc3n(CC(=O)Nc3ccccc3C)c2=O)OCCO4)cc1 | inactive: -3.43% | –
59 | Cc1ccccc1NC(=O)/C(C#N)=C/c1ccc(Cl)cc1Cl | inactive: -3.47% | –
60 | CCOC(=O)c1ccc(NC(=O)CC(=O)Nc2ccc3nc4n(c(=O)c3c2)CCCCC4)cc1 | inactive: -2.59% | –
61 | COc1ccc(-c2nc3sc(CCNS(=O)(=O)c4ccccc4)c(C)n3n2)cc1 | inactive: 1.36% | –
62 | CCCOc1ccc(C(=O)Nc2cc3c(cc2N2CCCCC2)n(C)c(=O)n3C)cc1 | inactive: 0.771% | –
63 | COc1ccc(Br)cc1CNC(=O)CN1C(=O)c2cccnc2Oc2ccc(C)cc21 | inactive: -20.7% | –
64 | Cc1ccc2oc(C(=O)Nc3ccc(S(=O)(=O)Nc4nccc(C)n4)cc3)cc(=O)c2c1 | inactive: 3.08% | –
65 | CC(C)c1ccc(N(CC(=O)O)S(=O)(=O)c2ccc3[nH]c(=O)c(=O)[nH]c3c2)cc1 | inactive: -1.13% | –
66 | Cc1ccc2ncc3c(-c4ccc(F)cc4)nn(CC(=O)Nc4ccccc4C)c3c2c1 | inactive: -0.415% | –
67 | Cc1ccc(S(=O)(=O)Cc2nc(-c3ccc(C(=O)NCCCOC(C)C)cc3)oc2C)cc1 | inactive: -0.342% | –
68 | CCOc1ccc(C(=O)Nc2cc3c(cc2N2CCCC2)n(C)c(=O)c(=O)n3C)cc1OCC | inactive: -15% | –
69 | CSc1ncc2c(n1)-c1ccccc1N(Cc1ccccc1)S2(=O)=O | inactive: 1.07% | –
70 | Cc1ccc2[nH]c3c(=O)n(CC(=O)Nc4ccc(Br)cc4C)ncc3c2c1 | inactive: 1.5% | –
71 | Fc1ccc(Nc2nc3ccccc3n3cnnc23)c(F)c1 | inactive: -1.75% | –
72 | COc1ccc(Oc2nc3c(c(=O)n(Cc4ccc(Br)cc4)c(=O)n3C)n2C)cc1 | inactive: 2.54% | –

Row | SMILES | activity change, negative = inhibition | Potency
73 | COc1cccc(C(=O)N(Cc2nc(-c3ccc(Cl)cc3)no2)C(C)C)c1OC | inactive: 1.43% | –
74 | COc1ccc(NC(=O)c2nc(-c3ccc(C)cc3)n3c2CCCCC3)cc1 | inactive: -0.801% | –
75 | CCSc1nc2ccccc2c(OCc2ccccc2Cl)c1C(=O)OC | inactive: 5.91% | –
76 | O=C(c1ccc(F)cc1)n1nc(-c2cccnc2)nc1NCc1ccccc1 | inactive: 1.41% | –
77 | COc1ccc(-n2ccnc(NCCc3ccccc3)c2=O)cc1OC | inactive: -0.174% | –
78 | CC(C)(C)c1ccc(C(=O)Nc2c(C(=O)c3ccc(F)cc3)oc3ccccc23)cc1 | inactive: 13.4% | –
79 | Cc1nc2nc(CNC(=O)c3cccc(F)c3)nn2c(C)c1CCC(=O)Nc1cccc(Cl)c1 | inactive: -6.86% | –
80 | Cc1nn(C(C)C(=O)Nc2ccccc2C(F)(F)F)c(=O)c2c1sc1ccccc12 (stereo not given) | inactive: -6.07% | –
81 | COc1ccccc1CNC(=O)COCc1cc(-c2cccs2)on1 | inactive: 2.28% | –
82 | Cc1ccc(N(CC(C)C)S(=O)(=O)c2nnc(NC(=O)C(C)C)s2)cc1 | inactive: -0.369% | –
83 | Cc1ccc2oc(-c3ccc(Cl)c(NC(=O)c4cc5ccccc5o4)c3)nc2c1 | inactive: 1.65% | –
84 | Cc1ccc(CNC(=O)c2cnc3c(-c4ccc(F)cc4)c(C)nn3c2C)o1 | inactive: -4.41% | –
85 | COc1ccc(Cl)cc1NC(=O)c1cnc2sc(N3CCOCC3)nn2c1=O | inactive: -4.26% | –
86 | CN1CCN(CCNC(=O)c2cnn(-c3ccc(Cl)cc3)c2C2CCN(C(=O)OC(C)(C)C)CC2)CC1 | inactive: -2.73% | –
87 | CCN(C(=O)C1CCN(S(=O)(=O)c2c(C)noc2/C=C/c2ccc(C)cc2)CC1)c1cccc(C)c1 | inactive: 3.32% | –
88 | CCC(=O)N1CCc2cc(S(=O)(=O)NC(Cc3ccccc3)C(=O)O)ccc21 (stereo not given) | inactive: -2.45% | –
89 | COc1ccc(NC(=O)CSc2nc3ccccc3c(=O)n2CCC(=O)NC2CCCCC2)c(OC)c1 | inactive: -4.23% | –
90 | O=C(CCCCCn1c(=O)c2sccc2n(Cc2ccccc2Cl)c1=O)NCc1ccc2c(c1)OCO2 | inactive: -10.1% | –
91 | Cc1ccc(S(=O)(=O)Nc2ccc3nc(-c4cccc(Cl)c4)oc3c2)cc1 | inactive: -8.95% | –
92 | COc1ccc(CCNC(=O)C(C)n2nc(C)c3sc4ccccc4c3c2=O)c(OC)c1 (stereo not given) | – | active: 2.93 µM
93 | COc1cccc(-c2cn3c(n2)sc2cc(C(=O)NC4CCCCC4)ccc23)c1 | inactive: 2.48% | –
94 | CCN(CCCNC(=O)c1cc2c(=O)n(C)c3ccccc3c2s1)c1ccccc1 | inactive: 2.79% | –
95 | CCc1ccccc1Nc1nn2c(=O)c3ccc(C(=O)NC(C)C)cc3nc2s1 | inactive: -11.3% | –
